Measured values: PubChem BioAssay AID1463 (National Center for Advancing Translational Sciences (NCATS), 2008)
The whole screen tested about 280,000 compounds, of which about 2,600 (0.93%) were called active. Not shown: some 8% with an inconclusive outcome. The call rests on the fitted dose curve; in most records, active means well fitted curve in the direction sought with a large enough effect; inconclusive means small, poorly fitted or top-dose-only effect; inactive means flat fitted curve, though single readings scatter. This is a selection; strong and weak results do not stand in their true shares. The source holds several records for some structures; these can differ, active in one and inactive in another.

Test: Counterscreen qHTS for Inhibitors of Tau Fibril Formation, Fluorescence Polarization; further: nearly all actives have a fitted effect of over 55% in size
Settings: tau K18 P301L (four-repeat tau fragment) Alexa594 fluorescence, heparin fibrillization; series mostly up to 57.7 µM; activity change, negative = decrease: at the top concentration
Excerpt: NIH Molecular Libraries Probe Production Network [MLPCN]
NIH Chemical Genomics Center [NCGC]
Assay Provider: Carlo Ballatore, University of Pennsylvania
The microtubule-associated protein tau is an abundant protein in the axons of neurons that stabilizes microtubules. With its ability to modulate microtubule dynamics, tau contributes directly or indirectly, to key structural and regulatory cellular functions. Particularly important is the influence tau exerts on axonal transport, which allows signaling molecules, trophic factors and other essential cellular constituents to travel along the axons. Under pathological conditions, tau becomes sequestered into insoluble aggregates called neurofibrillary tangles. This phenomenon is believed to have pathological consequences by promoting axonal transport deficits that ultimately lead to synaptic dysfunction and neuronal loss. To identify inhibitors of tau aggregation, a heparin-induced tau fibril formation assay was used that employed a recombinantly expressed fragment of tau, K18 (Q242-E372), bearing a P301L mutation (Gustke et al. 1994; Hong et al. 1998). […] Total fluorescence (555 nm excitation and 632 nm emission) was measured to identify fluorescent or absorbent compounds at this wavelength. Such compounds may be artifacts that interfere with the Alexa 594 Tau fluorescence polarization assay.
Gustke, N., B. Trinczek, et al. (1994). "Domains of tau protein and interactions with microtubules." Biochemistry 33(32): 9511-22.
Hong, M., V. Zhukareva, et al. (1998).
Li, W. and V. M. Lee (2006). "Characterization of two VQIXXK motifs for tau fibrillization in vitro." Biochemistry 45(51): 15692-701.
von Bergen, M., S. Barghorn, et al. (2001). "Mutations of tau protein in frontotemporal dementia promote aggregation of paired helical filaments by enhancing local beta-structure." J Biol Chem 276(51): 48165-74.
NCGC Assay Protocol Summary:
For screening, 2 uL/well human K18 P301L (15 uM unlabeled and 0.24 uM Alexa 594-labeled tau final concentrations) in reagent buffer (100 mM sodium acetate pH 7) was dispensed into black solid 1536-well plates (Grenier) using a solenoid-based dispenser. Following transfer of 23 nL compound or DMSO vehicle by a pin tool, 2 uL/well heparin (20 uM final concentration) in reagent buffer was added and the plate centrifuged 15 s at 1000 RPM. Plates were incubated 6 hr at 37 C and then 1 uL/well ThT (30 uM final concentration) was added. After a 1 hr ambient incubation, the plates were read by an Envision (Perkin Elmer) to monitor Alexa 594 FP (555 nm excitation and 632 nm emission).
Keywords: NIH Roadmap, MLPCN, MLI, MLSMR, NCGC, qHTS, tau, tauopathies, Alzheimer's disease, fibril, neurodegeneration, aggregation
On the % scale 0 is the no-effect control and ±100 the full control effect; potency means the concentration at half of the fitted maximal effect; tags describe the fitted curve by direction and shape or compound fluorescence and quenching.

Structure (SMILES) | activity change, negative = decrease | Potency
C=C(C)CN1CC[C@@]23c4c5ccc(O)c4O[C@H]2c2[nH]c4ccccc4c2C[C@]3(O)[C@@H]1C5 | inactive: -24.2% | 
C[C@H](CCC(=O)O)C[C@H](C)C[C@H](C)C(=O)/C=C(\O)[C@H](C)C[C@H](C)C/C=C/[C@@H](C)[C@@H](O)[C@@H](C)[C@@H](O)C[C@@H]1CC[C@@](C)(C2CC[C@@](C)([C@@H](C)O)O2)O1 (some centres undefined) | inactive: -16.3% | 
CCCN(CCC)C1CCc2ccc(O)cc2C1 (centres undefined) | inactive: -1.18% | 
COc1ccc2c3c([nH]c2c1)C(C)=NCC3 |  | inactive
CN1CCN(C(=O)OC2c3nccnc3C(=O)N2c2ccc(Cl)cn2)CC1 (centres undefined) |  | inactive
OCCN1CCN(CCCN2c3ccccc3Sc3ccc(C(F)(F)F)cc32)CC1 | inactive: -28.4% | 
O=C1NC(=O)N(c2ccccc2)C(=O)/C1=C/c1ccc([N+](=O)[O-])s1 | inactive: -6.93% | 
COc1cc(CNC(=O)CCCC/C=C\C(C)C)ccc1O |  | inactive
CN1CC[C@@]23CCCC[C@@H]2[C@@H]1Cc1ccc(O)cc13 | inactive: -1.51% | 
CNC(C)C(O)c1ccccc1 (centres undefined) | inactive: -6.41% | 
O=C1OC(c2cc(I)c(O)c(I)c2)(c2cc(I)c(O)c(I)c2)c2ccccc21 |  | active: 7.08 µM [quencher]
CNC(C)[C@H](O)c1ccccc1 (some centres undefined) | inactive: -8.33% | 
NCCc1c[nH]c2ccc(O)cc12 |  | inactive
c1cc2c(cc1[C@H]1OC[C@H]3[C@@H]1CO[C@@H]3c1ccc3c(c1)OCO3)OCO2 | inactive: -8.41% | 
Oc1cc2c(cc1O)[C@H]1c3ccccc3CN[C@@H]1CC2 | inactive: -29.9% | 
CCCN(CCC)[C@@H]1CCc2ccc(O)cc2C1 |  | inactive
CC1=NCCc2c1[nH]c1cc(O)ccc21 | inactive: -20% | 
O=C(O)CCNC(=O)c1ccccc1 | inactive: -11.2% | 
C=C1C(=O)O[C@@H]2C[C@@H](C)[C@@H]3C=CC(=O)[C@@]3(C)[C@@H](O)[C@H]12 | inactive: -9.45% | 
Cc1ccc(N=Nc2cc(C)ccc2N)cc1 |  | active: 17.8 µM [quencher]
CN1CCN(C(=O)O[C@@H]2c3nccnc3C(=O)N2c2ccc(Cl)cn2)CC1 | inactive: -4.57% | 
CC(=O)N1CCN(c2ccc(OC[C@H]3CO[C@](Cn4ccnc4)(c4ccc(Cl)cc4Cl)O3)cc2)CC1 |  | inactive

Structure (SMILES) | activity change, negative = decrease | Potency
NCCc1cc(O)c(O)cc1O |  | active: 10 µM [quencher]
CN1CC[C@@]23CCCCC2C1Cc1ccc(O)cc13 (some centres undefined) | inactive: -20.3% | 
C=C[C@H]1CN2CCC1C[C@@H]2C(O)c1ccnc2ccccc12 (some centres undefined) | inactive: 1.81% | 
Cc1c(C(=O)c2cccc3ccccc23)c2cccc3c2n1[C@H](CN1CCOCC1)CO3 |  | inactive
N#CC(C#N)=Cc1cc(O)c(O)c(O)c1 | inactive: 8.84% | 
CC[C@@H](CO)NC(=O)[C@@H]1C=C2c3cccc4c3c(cn4C)C[C@H]2N(C)C1 |  | inactive
CNC(C)[C@@H](O)c1ccccc1 (some centres undefined) | inactive: -5.5% | 
CN1CCN(C(=O)O[C@H]2c3nccnc3C(=O)N2c2ccc(Cl)cn2)CC1 | inactive: -0.566% | 
CNc1ccc2oc(C[C@H]3O[C@]4(CC[C@H]3C)O[C@H]([C@H](C)C(=O)c3ccc[nH]3)[C@H](C)C[C@H]4C)nc2c1C(=O)O | inactive: -18.1% | 
O=C(O)c1ccccc1Nc1cccc(C(F)(F)F)c1 |  | inactive
O=c1c2ccccc2[se]n1-c1ccccc1 |  | inactive
CS(=O)(=O)Nc1ccc(Cc2noc(-c3ccc4[nH]cc(CCN)c4c3)n2)cc1 | inactive: -23.9% | 
NC(Cc1ccc(N(CCCl)CCCl)cc1)C(=O)O (centres undefined) | inactive: -20.4% | 
N#CC(C#N)=Cc1ccc([N+](=O)[O-])c(O)c1 |  | inactive
C=CC1CN2CCC1CC2C(O)c1ccnc2ccccc12 (centres undefined) | inactive: -6.87% | 
COC1=C[C@]23CCCN2CCc2cc4c(cc2[C@@H]3[C@@H]1O)OCO4 | inactive: -2.71% | 
CCC(CO)NC(=O)[C@@H]1C=C2c3cccc4[nH]cc(c34)C[C@H]2N(C)C1 (some centres undefined) | inactive: -11% | 
COc1cccc2c1cc([N+](=O)[O-])c1c(C(=O)O)cc3c(c12)OCO3 |  | inactive
CN[C@H](C)[C@H](O)c1ccccc1 | inactive: -6.27% | 
CC(N)C(O)c1ccc(O)c(O)c1 (centres undefined) | inactive: -11.1% | 
C[N+]1=C(/C=C/Nc2ccccc2)C(C)(C)c2ccccc21 | inactive: -7.75% | 
COc1ccccc1N1CCNCC1 |  | inactive
